# Data as given in paper PMC5836133.
# This is one part of the list. At the low end of the ranking the order means little.
# Test system: T1, GST-NbGlk1(82-244)
# T1 sequence: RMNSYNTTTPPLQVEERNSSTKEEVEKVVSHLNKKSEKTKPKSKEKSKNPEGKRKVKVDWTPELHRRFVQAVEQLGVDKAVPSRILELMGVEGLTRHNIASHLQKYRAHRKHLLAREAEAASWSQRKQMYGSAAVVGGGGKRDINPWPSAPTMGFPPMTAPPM
# Assay: protein-binding microarray;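 further: rank-based score ranging −0.5 to +0.5 with E above 0.45 taken as significant binding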
# Details: NbGlk1 is a Golden2-like transcription factor of Nicotiana benthamiana; high values mean tight binding; most listed sequences are background and not binding sites; double strand, one strand shown
row,Sequence,binding signal
1,AGGAAATA,0.239 E-score
2,AGGAATGA,-0.135 E-score
3,ACAAGAAG,-0.14 E-score
4,AGTACACA,-0.104 E-score
5,AGCCCCTA,-0.191 E-score
6,AACGCGTC,-0.0544 E-score
7,AACTGATG,-0.0439 E-score
8,ACTACGCA,0.00534 E-score
9,AAGACCCC,-0.262 E-score
10,AGCGCTCG,-0.19 E-score
11,AGCGAGGC,-0.173 E-score
12,AGATTTAA,0.269 E-score
13,AGGTCCAT,-0.262 E-score
14,ACTAGGCT,-0.14 E-score
15,ATCCCCAT,0.277 E-score
16,AGTTGCAG,-0.0444 E-score
17,CAAGAGCA,-0.119 E-score
18,AAGAAATT,0.14 E-score
19,AAAGAGCC,-0.233 E-score
20,AATCCGGT,0.393 E-score
21,AAGGGAGA,-0.111 E-score
22,ACTGCGTG,-0.236 E-score
23,AGTTTAAG,-0.0011 E-score
24,AGATCTGG,0.364 E-score
25,AATCGAGC,0.207 E-score

row,Sequence,binding signal
1,AGGGAACG,-0.298 E-score
2,ATCGACAG,0.111 E-score
3,ACCGGCCG,-0.12 E-score
4,ACTTTGAC,-0.167 E-score
5,ACCGGTCA,-0.0022 E-score
6,AACGTTAC,0.0277 E-score
7,ACCTTTCC,-0.156 E-score
8,AAACGCAT,-0.0117 E-score
9,AAACGGGG,-0.0781 E-score
10,AAACTGTT,-0.0414 E-score
11,ACGCCGCC,-0.2 E-score
12,AGCATCGC,-0.0537 E-score
13,AGGAGTTA,-0.0403 E-score
14,ACGTCAGA,-0.0329 E-score
15,ACGAGACA,-0.112 E-score
16,ATATTATA,0.279 E-score
17,ATATAGCG,0.0922 E-score
18,ACTACTGG,0.0332 E-score
19,CACTGGAA,-0.136 E-score
20,ACTCAATG,0.0234 E-score
21,ACTCTATA,0.0537 E-score
22,CAATCAAA,0.214 E-score
23,ATAACCGC,0.0432 E-score
24,AACTCTAA,0.0558 E-score
25,ATTGGCTG,0.1 E-score

row,Sequence,binding signal
1,CAAACGTA,-0.0229 E-score
2,AGCCTCAT,-0.157 E-score
3,ACTCAAAG,0.00775 E-score
4,CACAACGG,-0.0812 E-score
5,ATAGTCCC,-0.203 E-score
6,ATTTCTCG,0.285 E-score
7,CAACGGTC,-0.212 E-score
8,AAAGTCTC,-0.141 E-score
9,AAAAATGG,0.025 E-score
10,AGGGCCGG,-0.296 E-score
11,ACAATACA,0.137 E-score
12,AATGTCAC,0.0237 E-score
13,CAAGGGGC,-0.383 E-score
14,AATGACCG,0.00479 E-score
15,AAGTAGAT,0.216 E-score
16,ATGGCCAG,-0.314 E-score
17,ACGAACCC,-0.183 E-score
18,AACAACTT,0.0226 E-score
19,CAACTACG,0.0364 E-score
20,ACTAAGCA,0.0408 E-score
21,AACGCGTA,-0.0303 E-score
22,AAGTTGAA,-0.00901 E-score
23,AGGATGGG,-0.179 E-score
24,AACGTATG,-0.0497 E-score
25,ATGAAGTC,-0.179 E-score

row,Sequence,binding signal
1,ACATAGGA,0.0936 E-score
2,AACCCGGC,-0.178 E-score
3,ATGTTGCG,0.0547 E-score
4,ATTTACAA,0.245 E-score
5,AGACGACT,-0.125 E-score
6,ACATGTGC,-0.153 E-score
7,AAATGCGG,-0.0601 E-score
8,ACAGGTAT,0.186 E-score
9,CACACTGG,-0.23 E-score
10,AAGGCGCG,-0.0769 E-score
11,ACTGGACT,-0.194 E-score
12,ATATTATC,0.207 E-score
13,AGGGCGGG,-0.0186 E-score
14,ATGATACC,0.11 E-score
15,ACTCTGAC,-0.1 E-score
16,AGCTAGAT,0.216 E-score
17,AAAATCGC,0.405 E-score
18,AAAACCTG,-0.0801 E-score
19,AGCGTTGC,-0.154 E-score
20,ACTTTGGC,-0.0566 E-score
21,CAACGTAC,-0.112 E-score
22,ATTTCCAC,0.327 E-score
23,ACTTTTAA,0.0525 E-score
24,CAATATGA,0.165 E-score
25,ATTTTCTC,0.316 E-score

row,Sequence,binding signal
1,ACCCACCC,-0.0267 E-score
2,ATATGCGG,0.114 E-score
3,ATCACAAG,0.134 E-score
4,ATGTTCCG,-0.0664 E-score
5,AGCTCCGG,-0.251 E-score
6,AATGAGAA,0.144 E-score
7,ACCATGCA,-0.108 E-score
8,AGACCCGG,-0.246 E-score
9,AGAGTAAT,0.217 E-score
10,ACCCTACA,-0.0787 E-score
11,ACGGTTCC,-0.278 E-score
12,ACTTGAGA,-0.00419 E-score
13,ACGTCCCT,-0.135 E-score
14,AAATCCGT,0.401 E-score
15,ATTGCGCG,0.378 E-score
16,ATTCAAGA,0.0101 E-score
17,AGAACCCT,-0.266 E-score
18,ATAGCACA,-0.0338 E-score
19,CACTACCG,-0.0977 E-score
20,ATTTTGAC,0.177 E-score
21,CAGCCCCA,-0.214 E-score
22,ATGGCTAG,-0.0572 E-score
23,AGATGTCC,-0.0552 E-score
24,ACCGGACT,-0.219 E-score
25,CAAATTAA,-0.0733 E-score

row,Sequence,binding signal
1,ACTCCTCC,-0.192 E-score
2,ACTAGCCC,-0.2 E-score
3,AACCTCAT,-0.145 E-score
4,ACACGAGA,0.225 E-score
5,ATGCGCTG,-0.00802 E-score
6,ACGGTTTG,-0.167 E-score
7,ATGCCGAG,-0.105 E-score
8,ACCGTACG,-0.0886 E-score
9,AACACTAG,-0.0921 E-score
10,ACATCCGG,0.118 E-score
11,AGGGTAGG,-0.188 E-score
12,AGCATCTA,0.161 E-score
13,AGAGCCGA,-0.174 E-score
14,ACCCCGGC,-0.22 E-score
15,CACTCAAC,-0.029 E-score
16,AGAGCTTA,-0.177 E-score
17,ACAGCGTA,-0.0646 E-score
18,ACAAAGCT,-0.125 E-score
19,ATCTACAG,0.259 E-score
20,AAAACGGA,0.0281 E-score
21,CAAAGGCG,-0.229 E-score
22,ATTTACCG,0.076 E-score
23,AAAAACAG,0.00523 E-score
24,ACCCTTAA,-0.158 E-score
25,CAACTCGG,-0.0632 E-score

row,Sequence,binding signal
1,ACATGGAT,0.276 E-score
2,AGACGAAG,-0.0932 E-score
3,AGTGAGGG,-0.113 E-score
4,ATACTTGC,0.177 E-score
5,ACCCCCTC,-0.236 E-score
6,AGCGGGCA,-0.192 E-score
7,ACGGTCGC,-0.222 E-score
8,ATTCGTAG,0.112 E-score
9,AGACCAAA,-0.0264 E-score
10,ACGATTAC,0.407 E-score
11,CAATGGGC,-0.343 E-score
12,ATACGCCA,0.0884 E-score
13,CACGTCCA,-0.0315 E-score
14,CAGCCGGC,-0.393 E-score
15,CACTGCGA,0.0317 E-score
16,AACGCATT,-0.0271 E-score
17,ATCTCGAG,0.292 E-score
18,AGAGGGTC,-0.356 E-score
19,AGATAAAC,-0.12 E-score
20,ACCGCTTG,-0.103 E-score
21,AGGAGCGG,-0.181 E-score
22,AGCTACTA,-0.131 E-score
23,ACAAGCCC,-0.223 E-score
24,CAAACGAC,0.0302 E-score
25,AACCCAAG,-0.0536 E-score

row,Sequence,binding signal
1,AAAGAATT,0.139 E-score
2,AACCGAGT,-0.169 E-score
3,AGAGGTTG,-0.0687 E-score
4,AATAATTG,0.0255 E-score
5,ACACACGG,-0.167 E-score
6,AAGTACAC,-0.171 E-score
7,AATCGGCC,0.152 E-score
8,CAAACCAC,-0.0426 E-score
9,AAGATAGT,-0.00179 E-score
10,ATCAGTAG,0.0779 E-score
11,AATACGAA,0.205 E-score
12,ATACGACC,-0.00634 E-score
13,AGCCGAGG,-0.191 E-score
14,AGATTGCA,0.464 E-score
15,AGGGAAGC,-0.108 E-score
16,AAGGTAAA,0.11 E-score
17,AGGAAAGC,-0.0988 E-score
18,ACTTGGAT,0.263 E-score
19,CAACCATG,-0.171 E-score
20,AATTTAAT,0.157 E-score
21,CAAAGGGC,-0.278 E-score
22,ATAGGCGA,0.0466 E-score
23,ACCAAGAG,-0.142 E-score
24,ATCCAGTC,0.089 E-score
25,AAAGAAAT,0.26 E-score

row,Sequence,binding signal
1,ATTACTAA,0.141 E-score
2,CAACTGTG,-0.144 E-score
3,ACGCCTCA,-0.109 E-score
4,ATAGCCGG,-0.221 E-score
5,ATATCACG,0.347 E-score
6,AGGAGAGA,-0.0212 E-score
7,ACTGTTCT,-0.0658 E-score
8,ACCCCACT,-0.155 E-score
9,ATTTGAGC,0.0875 E-score
10,ATACTCTA,0.228 E-score
11,ACAGCTCC,-0.126 E-score
12,AGCCCCGG,-0.301 E-score
13,AGGCTTAG,-0.0742 E-score
14,ATCAGCCC,0.0363 E-score
15,ATTCATGA,0.0306 E-score
16,ACGGATTC,0.405 E-score
17,AGAACACC,-0.237 E-score
18,ACACCGGT,-0.133 E-score
19,AGTCACAA,-0.0197 E-score
